# Source: PubChem BioAssay AID504332 (National Center for Advancing Translational Sciences (NCATS), 2011)
# Among all 350,000 compounds or so, about 31,000 (8.9%) were called active. Inconclusive results, whose numbers are uncertain, are shown with a selection of clear calls. The call rests on the fitted dose curve; in most records, active means well fitted inhibition curve with a large enough effect; inconclusive means small, poorly fitted or top-dose-only effect; inactive means no such curve, though single readings can be large or run the other way. Potencies beside an inconclusive call are fits to weak or partial responses and may not hold up.
# Target: Histone-lysine N-methyltransferase EHMT2 (Homo sapiens) (UniProt Q96KQ7)
# Chain of UniProt Q96KQ7 (Q96KQ7 whole entry, looked up): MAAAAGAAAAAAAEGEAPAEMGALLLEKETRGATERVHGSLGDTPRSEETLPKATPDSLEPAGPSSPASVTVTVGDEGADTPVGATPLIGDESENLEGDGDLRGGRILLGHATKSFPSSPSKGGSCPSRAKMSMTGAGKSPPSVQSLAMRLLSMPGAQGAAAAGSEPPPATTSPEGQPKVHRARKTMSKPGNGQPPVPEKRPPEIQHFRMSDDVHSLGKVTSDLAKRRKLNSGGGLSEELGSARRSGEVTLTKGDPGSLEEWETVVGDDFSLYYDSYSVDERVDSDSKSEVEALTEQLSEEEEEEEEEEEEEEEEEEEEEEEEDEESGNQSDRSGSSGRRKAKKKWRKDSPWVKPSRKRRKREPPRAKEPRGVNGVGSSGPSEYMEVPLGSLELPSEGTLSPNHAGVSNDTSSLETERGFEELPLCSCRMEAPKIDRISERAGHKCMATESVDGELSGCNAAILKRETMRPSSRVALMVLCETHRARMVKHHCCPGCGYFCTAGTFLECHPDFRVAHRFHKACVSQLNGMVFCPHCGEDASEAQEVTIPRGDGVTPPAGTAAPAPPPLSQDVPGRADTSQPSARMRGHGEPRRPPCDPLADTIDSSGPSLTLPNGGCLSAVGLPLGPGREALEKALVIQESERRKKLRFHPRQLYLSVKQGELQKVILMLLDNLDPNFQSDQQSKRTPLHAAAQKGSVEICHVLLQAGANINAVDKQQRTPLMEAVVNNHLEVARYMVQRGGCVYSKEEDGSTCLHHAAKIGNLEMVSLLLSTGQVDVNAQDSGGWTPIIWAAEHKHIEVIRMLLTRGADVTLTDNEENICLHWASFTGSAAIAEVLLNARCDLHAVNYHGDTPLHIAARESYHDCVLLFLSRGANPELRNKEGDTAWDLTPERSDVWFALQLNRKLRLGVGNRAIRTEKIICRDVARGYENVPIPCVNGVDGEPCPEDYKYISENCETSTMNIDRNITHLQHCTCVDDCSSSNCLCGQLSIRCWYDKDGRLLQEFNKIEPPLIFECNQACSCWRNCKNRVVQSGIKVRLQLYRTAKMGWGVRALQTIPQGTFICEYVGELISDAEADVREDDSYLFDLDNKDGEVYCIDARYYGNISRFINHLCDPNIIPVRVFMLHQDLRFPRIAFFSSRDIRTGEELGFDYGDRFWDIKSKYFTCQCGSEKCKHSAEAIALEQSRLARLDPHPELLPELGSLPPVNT
# Test: qHTS Assay for Inhibitors of Histone Lysine Methyltransferase G9a; further: nearly all actives have a fitted effect of over 75% in size
# Conditions: G9a H3K9 monomethylation, AlphaScreen, 2 h; activity, negative = inhibition: at 59 µM (top of the series) unless noted
# Summary of the method: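 AlphaScreen read-out: biotin-H3K9 peptide (500 nM) methylation by 20 nM enzyme with 20 uM SAM, 2 h at room temperature after 15 min compound preincubation; anti-monomethyl H3K9 antibody plus donor/acceptor beads, 10 min dark.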
# On the % scale 0 is the no-effect control and ±100 the full control effect; potency means the concentration at half of the fitted maximal effect; tags describe the fitted curve by direction and shape.
SMILES,"activity, negative = inhibition",Potency
C=CCn1c(NCc2ccc3c(c2)OCO3)nc2ccccc21,inactive: -44.4% [at 102 µM],
COCCOC(=O)c1[nH]c2c(c1C)C(=O)C(C(=O)OC)C(C)C2 (stereo not given),inactive: -2.65% [at 102 µM],
CCN1CCN(c2ccc(S(=O)(=O)N3CCCCC3)cc2NC(=O)c2ccc(C)o2)CC1,,active: 39.8 µM
O=C(c1ccc(F)cc1)N1CCN(C2CCCCC2)CC1,,active: 31.6 µM
O=C(NC(=S)Nc1ccc(CN2CCCCC2)cc1)c1cc2ccccc2o1,,"inconclusive: 89.1 µM [inhibitor, single point]"
CCOc1ccc(NC(=O)CN2CCN(CC(=O)Nc3cccc(F)c3)CC2)cc1,,"inconclusive: 39.8 µM [inhibitor, single point]"
CCCNC(=O)OC[C@H]1O[C@H](CCO/N=C(\C)CCN2CCc3nc(-c4ccccc4)c(-c4ccccc4)cc3C2)C=C[C@@H]1Oc1ccc(OC)cc1,,"inconclusive: 70.8 µM [inhibitor, partial curve, poor fit]"
CCOC(=O)c1scc(-c2ccc(C)cc2)c1S(=O)(=O)Nc1ccc(F)c(F)c1,inactive: -35.4%,
NC(=O)c1ccccc1C[C@H](C(=O)O)N1C(=O)c2ccc(C(=O)O)cc2C1=O,inactive: 5.67% [at 12.7 µM],
O=c1c2ccccc2cnn1Cc1n[nH]c(=S)n1-c1ccccc1Cl,,active: 4.47 µM
CCc1ccc(N2C(=O)CS(=O)(=O)C23C(=O)N(Cc2ccccc2F)c2ccccc23)cc1 (stereo not given),inactive: -31.7%,
COc1ccccc1/C=C/CN1CCC(Oc2cc(C(=O)NC3CC3)ccc2OC)CC1,inactive: 2.58% [at 102 µM],
CN1CCN(CCC(=O)N/N=C/c2ccccn2)CC1,,active: 1.26 µM
Cc1[nH]c(=O)[nH]c(=O)c1/C=N/NC(=O)[C@H](CC(C)C)NC(=O)OC(C)(C)C,,"inconclusive: 44.7 µM [inhibitor, partial curve, poor fit]"
O=C(COC(=O)c1cc(Cl)ccc1O)NC(=O)NCc1ccccc1,,"inconclusive: 7.08 µM [inhibitor, single point]"
Cc1cc(C)c2cc(CN(CCN3CCCC3)C(=O)Nc3ccc(F)cc3)c(=O)[nH]c2c1,,"inconclusive: 50.1 µM [inhibitor, partial curve]"
COc1ccc(NC(=O)N(Cc2ccco2)C2CCN(C(C)=O)CC2)c(OC)c1,inactive: -6.47%,
CCOC(=O)c1ccc(NC(=O)CSc2nc(N)c(NC(=O)c3ccc(Br)o3)c(=O)[nH]2)cc1,,"inconclusive: 56.2 µM [inhibitor, single point]"
O=C(Nc1cccc(-c2cn3ccccc3n2)c1)c1cccs1,,"inconclusive: 89.1 µM [inhibitor, single point]"
COc1cc2cc(C(c3nnnn3C(C)(C)C)N3CCc4ccccc43)c(=O)[nH]c2cc1OC (stereo not given),,"inconclusive: 35.5 µM [inhibitor, single point]"
Cc1oc(C(C)(C)C)c(CN2CCOCC2)c1C(=O)O,,"inconclusive: 89.1 µM [inhibitor, partial curve, poor fit]"
CCn1c(O)c(C=NC2CCCC2)sc1=S,,"inconclusive: 89.1 µM [inhibitor, single point]"
CCn1cc(C(=O)N2CCN(c3ccccc3)CC2)c(=O)c2cc(S(=O)(=O)N3CCC(C)CC3)ccc21,,"inconclusive: 12.6 µM [inhibitor, partial curve, poor fit]"

SMILES,"activity, negative = inhibition",Potency
O=C(CN(Cc1ccc2c(c1)OCO2)C(=O)CNS(=O)(=O)c1ccccc1)NCc1ccco1,,"inconclusive: 2.51 µM [inhibitor, partial curve, poor fit]"
CCCCOc1ccc(C2/C(=C(/O)c3ccc4c(c3)CC(C)O4)C(=O)C(=O)N2CCCN2CCOCC2)cc1OC (stereo not given),,active: 56.2 µM
COc1cccc(NC(=O)C2CCN(S(=O)(=O)c3cc(-c4noc(C)n4)ccc3C)CC2)c1,inactive: 8.79%,
Cc1cccc(Nc2nc(-c3c(C)nc4ccccn34)cs2)c1,,"inconclusive: 1.26 µM [inhibitor, partial curve, poor fit]"
CC1CCCC2(C1)NC(=S)N(c1ccccc1)N2 (stereo not given),,"inconclusive: 8.91 µM [inhibitor, partial curve, poor fit]"
CN(Cc1ccccc1)c1nc2c(c(=O)n(C)c(=O)n2C)n1CCCc1ccccc1,,"inconclusive: 70.8 µM [inhibitor, single point]"
Cc1ccc(NC(=O)C2CCN(S(=O)(=O)c3ccc(N4CCCC4=O)cc3)CC2)cc1Cl,inactive: 5.63% [at 102 µM],
CNc1cc(CSC)nc(SCc2ccc(Cl)c(Cl)c2)n1,,active: 31.6 µM
CN(C)CC(=O)Nc1cc(C(F)(F)F)ccc1Cl,inactive: 14.5%,
C/C(Cn1nnc([N+](=O)[O-])n1)=N\NC(=O)c1ccccc1O,inactive: -4.67% [at 102 µM],
CC(=O)c1cccc(NC(=O)Cn2c(C)c3cnn(-c4ccccc4)c(=O)c3c2C)c1,inactive: -34%,
COc1ccc(-c2cccc(NS(=O)(=O)c3cc([N+](=O)[O-])c(C)c([N+](=O)[O-])c3)c2)nn1,,"inconclusive: 50.1 µM [inhibitor, partial curve, poor fit]"
COc1ccc(CCn2nnnc2C(c2ccc(Cl)cc2)N2CCN(C)CC2)cc1OC (stereo not given),,"inconclusive: 56.2 µM [inhibitor, partial curve, poor fit]"
CCn1nc(C)c(C(=O)Nc2cc(Oc3cc(C)cc(C)c3)cc([N+](=O)[O-])c2)c1C,inconclusive: -55.1% [inhibitor],
CC(=O)Nc1cccc(-c2nc3ccccc3c(=O)o2)c1,,active: 11.2 µM
O=C(CSc1nnnn1-c1cccc2c1CCCC2)N1CCCCC1,,"inconclusive: 39.8 µM [inhibitor, single point]"
COc1ccc(C(=O)N2CCN(c3ccccc3OC)CC2)cc1,,"inconclusive: 89.1 µM [inhibitor, partial curve, poor fit]"
CC[C@]1(c2cccc(C)c2)C(=O)N(C(=O)OC)N1C(=O)OC,,active: 39.8 µM
N=C1SCC(=O)N1c1ccccc1Cl,inactive: 14.7% [at 102 µM],
O=C(CSc1nnc(SCC(=O)c2ccco2)s1)c1ccco1,inactive: -11.9%,
Cc1ccc(CCCOC(=O)C[N+]2(C)CCCC2)cc1,,active: 15.8 µM
Cc1cc(O)c(-c2cc(O)c(C)cc2O)cc1O,,active: 2 µM
